Measured values from ChEMBL document CHEMBL1201862, “PubChem BioAssay data set” (2004).
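A five-concentration, 48-hour dose response in 96-well plates underlies each endpoint, interpolated linearly between surrounding concentrations. GI50 is the concentration that inhibits growth by half.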 The source made the active and inactive calls. Rule as the data show it: active = GI50 up to about 1.1 µM and inactive = higher.

test system: NCI-H322M; test: NCI-60 cell line screen, 48 h

Compound	GI50
N#CC(C#N)=C(N)/C(C#N)=C/c1ccc2ccccc2n1	inactive: > 100 µM
CCN1CCCc2cc3c(C(F)(F)F)cc(=O)oc3cc21	inactive: > 100 µM
Cc1nc2c(n1CC(C)(C)C)C(=O)c1ccccc1C2=O	inactive: > 100 µM
O=[N+]([O-])c1cc(Cl)cc2cc(Br)cnc12	inactive: > 31.6 µM
CC(=O)[C@]1(C)[C@H](C)O[C@](C)(CO)[C@H]1O[Si](C)(C)c1ccccc1	inactive: > 100 µM
O=C(O)CCC1CCc2cccc(O)c2C1=O (stereo not given)	inactive: > 100 µM
O=C(O)CN1CCN(CC(=O)O)CCN(CC(=O)O)CC1	inactive: > 100 µM
O=C1c2ccccc2C(=O)c2c1c1cc(O)ccc1n2Cc1ccc(Cl)cc1Cl	inactive: 14.6 µM
N#CC1(C#N)C(C#N)(C#N)C12CCCCCC2	inactive: 20.3 µM
CC(=O)OCCOCn1c2c(c(=O)[nH]c1=O)CCC2	inactive: > 100 µM
COc1ccc2c(c1)C1=NCCN(CCN(C)C)c3ccc([N+](=O)[O-])c(c31)N2	active: 0.307 µM
CO[C@@H]1C=C[C@@]23c4cc5c(cc4CN(C[C@@H]2O)[C@H]3C1)OCO5 [(+)-HAEMANTHAMINE]	inactive: 18.2 µM
CCOc1cc(/C=N/c2nc3cc4sc(/N=C/c5ccc(O)c(OCC)c5)nc4cc3s2)ccc1O	inactive: > 100 µM
CCCCn1c2c(n(CCCC)c1=S)-c1c(n(CCCC)c(=S)n1CCCC)SSc1c(n(CCCC)c(=S)n1CCCC)-c1c(n(CCCC)c(=S)n1CCCC)SSc1c(n(CCCC)c(=S)n1CCCC)-c1c(n(CCCC)c(=S)n1CCCC)SS2	inactive: > 46.6 µM
CSc1s[s+]c(SC)c1[O-]	inactive: > 100 µM
Cn1c(=O)oc2cc(C(O)CN3CCN(Cc4ccccn4)CC3)c(Cl)cc21 (stereo not given)	inactive: > 100 µM
O=C(CC(O)(C(F)(F)F)C(F)(F)F)c1cc(CC(=O)C(O)(C(F)(F)F)C(F)(F)F)cc(CC(=O)C(O)(C(F)(F)F)C(F)(F)F)c1	inactive: 2.59 µM
C/C=C/[C@@H]1O[C@H](CC#C[Si](C)(C)C)[C@@]2(C=O)C(C)=CC[C@H](C(C)C)[C@@H]12	inactive: 43.4 µM
Cc1cc(N(CCOS(C)(=O)=O)CCOS(C)(=O)=O)ccc1C=O	inactive: 2.44 µM
CC1(C)CC2(C)CC1CC2O (stereo not given)	inactive: > 100 µM
CN(C)Cc1ccc(C(C)(C)C)cc1-c1cc(C(C)(C)C)ccc1CN(C)C	inactive: 91.8 µM
C=Cc1ccccc1C1C(C(=O)OCC)=C(C)N=C2OC(C(=O)OC)C(=O)N21 (stereo not given)	inactive: > 100 µM
COc1cc2ccc1OCc1cccc(n1)COc1ccc(cc1OC)/C=N\c1ccc(cc1)-c1ccc(cc1)/N=C\2	inactive: > 100 µM

Compound	GI50
O=C(O)CCC(=O)Nc1ccc2ccccc2c1	inactive: > 100 µM
COc1ccc2cc(-c3ccc(OC)c(OC)c3)c(=O)oc2c1	inactive: > 100 µM
COC(=O)[C@@]1(O)CC(C)C=C1C=O (stereo not given in full)	inactive: > 100 µM
C[C@H](OC(=O)/C=C/c1ccc(O)c(O)c1)[C@H](C)OC(=O)/C=C/c1ccc(O)c(O)c1	inactive: 13.7 µM
O=C(CC(C(=O)c1cccs1)c1ccsc1)c1ccsc1 (stereo not given)	inactive: 32.1 µM
Cc1ccc(C2C(Cl)C(=O)N2n2cnc3ccccc3c2=O)cc1 (stereo not given)	inactive: > 100 µM
COC(=O)C1=C(CCCCO[Si](C)(C)C(C)(C)C)NC(=O)N2[C@H](CCOCc3ccccc3)CC[C@@H]12	inactive: > 100 µM
c1ccc([B-]2(c3ccccc3)OCCc3cccc[n+]32)cc1	inactive: 73.3 µM
N#Cc1c(-c2ccccc2)[nH]c2ccc(Cl)cc2c1=O	inactive: > 100 µM
CC1(c2cccs2)CC(c2cccs2)=C(C#N)C(=C(C#N)C#N)N1 (stereo not given)	inactive: 16.2 µM
COCCOC(=O)C1=C(O)c2ccccc2S(=O)(=O)N1C	inactive: > 100 µM
CSc1nc2c(c(N3CCOCC3)n1)C(O)n1c(nc3ccccc31)S2 (stereo not given)	inactive: > 100 µM
O=C(O)[C@@H](NS(=O)(=O)c1ccc(F)cc1)c1ccccc1	inactive: > 100 µM
O=C1c2cccc3cccc(c23)C(=O)N1CCCN1CCN(CCCN2C(=O)c3cccc4cccc(c34)C2=O)CC1	inactive: > 100 µM
COC1OC(C)C(OCc2ccccc2)C(OS(=O)(=O)c2ccc(C)cc2)C1OS(=O)(=O)c1ccc(C)cc1 (stereo not given)	inactive: > 100 µM
CC(C)(C)[Si](OC1CC(n2cnc3c(N)ncnc32)OC1CO)(c1ccccc1)c1ccccc1 (stereo not given)	inactive: 19.5 µM
CCOC(OCC)[C@@H]1C[C@@H]2N(O[C@H](OC3CCCC3(c3ccccc3)c3ccccc3)[C@H](OC(C)=O)[C@@]2(CC)Cc2ccc(OC)c(OC)c2)O1 (stereo not given in full)	inactive: > 100 µM
COC(=O)C(CC(=O)c1c[nH]c2ccccc12)c1c[nH]c2ccccc12 (stereo not given)	inactive: 20.3 µM
O=[N+]([O-])c1cc(/C=N\NS(=O)(=O)c2ccc(Cl)cc2)c(O)c([N+](=O)[O-])c1	inactive: 52.4 µM
COc1nc(C)nc2c1ncn2Cc1ccccc1	inactive: > 100 µM
CC(C(=O)n1c2ccccc2c2ccccc21)N(c1ccccc1)c1ccccc1 (stereo not given)	inactive: 17.3 µM
CNC(=O)CCCNC(=O)CCCC(=O)N(C)C	inactive: > 100 µM
N#Cc1[nH]c(=O)n(-c2ccc([N+](=O)[O-])cc2)c1N	inactive: > 10 µM

Compound	GI50
CN(C)CC1CCC(=C2CCCC2)C1=O (stereo not given)	inactive: 17.8 µM
COC(=O)c1ccc(NC(=O)O/N=C(\Cl)C(C)C)cc1	inactive: 16.4 µM
CN/C(=N/C#N)NCc1ccccc1	inactive: > 100 µM
Cn1cnc(S[C@H]2[C@H]3C(=O)C=C4S[C@H]5C[C@]42C2=C(N5)C(=O)c4[nH]cc5c4C2=[N+]3CC5)c1C[C@H](N)C(=O)O	inactive: 14 µM
C=CCOC(=O)[C@@H]1C[C@@H](OC(C)(C)C)CN1C(=O)[C@@H]1[C@H]2OC(C)(C)O[C@H]2CN1C(=O)OCC1c2ccccc2-c2ccccc21	inactive: 18.2 µM
COc1c(O)cc2c(c1O)C(=O)C(Cc1ccc(O)cc1)CO2 (stereo not given)	inactive: > 100 µM
COc1ccc2c(O)c3[n+](cc2c1OC)CCc1cc2c(cc1-3)OCO2	inactive: > 100 µM
O=C1/C(=N/c2ccc(Nc3ccccc3)cc2)Oc2ccccc21	inactive: 5.46 µM
C=C1[C@H](OC(=O)C(C)C)[C@]23CC4(O)[C@@H]5[C@@]6(C)CCC[C@]57C([C@@H]2C[C@@]1(O)[C@H](O)[C@@H]73)N4C6	inactive: > 100 µM
NNC(=O)N/N=C1\C(=O)N(c2nccs2)C(=O)C(=O)C1c1nc2ccccc2s1 (stereo not given)	inactive: > 100 µM
Nc1nnc2ccc(Cl)cc2[n+]1[O-]	inactive: 26.3 µM
CS(=O)(=O)OCCN(CCOS(C)(=O)=O)c1ccc(C=O)cc1	inactive: 10.5 µM
CSc1sc(C)cc1-c1nsc(=O)o1	inactive: > 100 µM
Fc1ccc(-c2sc(-c3cccs3)cc2Cc2cccs2)cc1	inactive: > 100 µM
O=c1[nH]nc(Cc2ccc(Cl)cc2)n1O	inactive: > 100 µM
CCCCCCCCOP(=O)(O)OP(=O)(O)OCC1OC(n2ccc(N)nc2=O)C(O)C1O (stereo not given)	inactive: > 100 µM
Cc1ccc(/C=N/Nc2cc(C)c3cccc(C)c3n2)s1	inactive: 1.76 µM
COc1nc(N)c(/N=C/C(OC(C)=O)C(OC(C)=O)C(COC(C)=O)OC(C)=O)c(=O)n1C (stereo not given)	inactive: > 100 µM
Oc1cc(-c2ccccc2)cn2c1nc1ccccc12	inactive: 3.27 µM
c1ccc(/N=c2/sc3ccccc3s/c2=N/c2ccccc2)cc1	inactive: 3.51 µM
NC(=O)c1cc2cc(Cl)cc(Cl)c2o/c1=N\c1ccc(F)cc1	inactive: 13.6 µM
C[C@]12CCc3nonc3C1CC[C@@H]1C2CC[C@]2(C)C(=O)CCC12 (stereo not given in full)	inactive: 52.4 µM
CC1(C)CC2C(C1=O)C1(C)CCCC2(C)C1=O (stereo not given)	inactive: > 100 µM

Compound	GI50
O=C1/C(=C\c2ccc([N+](=O)[O-])cc2)N(S(=O)(=O)c2ccccc2)c2ncccc21	inactive: 41.4 µM
C[C@H]1CC(=O)C2=CCCC3(SCCCS3)[C@@H]2[C@H]1CO	inactive: > 100 µM
O=[N+]([O-])c1ccc(/C(Cl)=C/c2ccc(/C=C(\Cl)c3ccc([N+](=O)[O-])cc3[N+](=O)[O-])cc2)c([N+](=O)[O-])c1	inactive: > 100 µM
O=[N+]([O-])C(C(Cl)=C(Cl)Cl)=C(N(Cc1ccccc1)Cc1ccccc1)N(Cc1ccccc1)Cc1ccccc1	inactive: > 100 µM
COc1cc(OC)c2c(=O)cc(-c3ccc(OC)c(OC)c3OC)oc2c1	inactive: > 100 µM
Nc1cc(O)nc(SC2=NC(N)CC(O)C2)n1 (stereo not given)	inactive: > 100 µM
O=S1(=O)OCc2ccccc21	inactive: > 100 µM
CCOC(=O)c1ccc(-c2ccc(Cl)cc2)[nH]1	inactive: > 10 µM
COc1ccc(CCN2C(=O)C(=O)C(C(=O)c3ccccc3)C2c2ccccc2)cc1OC (stereo not given)	inactive: > 100 µM
Cc1ccc(Nc2cn(COCc3ccccc3)c(=O)[nH]c2=O)cc1	inactive: > 100 µM
CC(C)c1cccc(C(=O)NCCN(C)C)c1[N+](=O)[O-]	inactive: > 100 µM
C=C(c1ccccc1)c1ccccc1-c1cc(-c2ccccc2)cc(-c2ccccc2)n1	inactive: > 100 µM
CC(=O)N1CCN(CCCCN2c3ccccc3Sc3cc(N=[N+]=[N-])ccc32)CC1	inactive: 17.3 µM
NC(=S)N/N=C/C1NCCC2CCCCC21 (stereo not given)	active: 0.234 µM
Cc1ccc(S[C@@H](C)[C@@](O)(CF)CN(Cc2ccccc2)C(=O)C(F)(F)F)cc1	inactive: 23.7 µM
Nc1nc(CCc2n[nH]c(N)n2)n[nH]1	inactive: > 100 µM
O=C(O)CCC(NC(=O)c1ccc(CNc2nc3cc(C(F)(F)F)ccc3nc2C(=O)O)cc1)C(=O)O (stereo not given)	inactive: > 100 µM
COC(=O)C(C)Sc1nc2cc(Cl)ccc2s1 (stereo not given)	inactive: > 100 µM
C[C@]12CC[C@H](OC3OC(CO)C(O)C(O)C3O)C[C@H]1CC[C@@H]1[C@@H]2CC[C@]2(C)[C@@H](C3=CCOC3=O)CC[C@]12O (stereo not given in full) [ACTODIGIN]	inactive: 26.1 µM
N#CC(C(=O)C(N)=O)c1ccccc1Cl (stereo not given)	inactive: > 100 µM
CCCC(=O)Nc1cn(COC)c(C(=O)N2C[C@@H]3C[C@]34C2=CC(=O)c2[nH]cc(C)c24)n1	inactive: 9.4 µM
